According to the supplement of paper PMC7125110:
± gives the standard error. Variants at the floor of the assay are shown more often than the library holds them.

B1: glmS ribozyme (parent)
chain: AUAAAAGCGCCAGAACUACAGAAAUGUAGUUGACGAGGAGGAGGUUUAUCGAAUUUUCGGCGGAUGCCUCCAAA

How the values were obtained:
Conditions in all cases: with glucosamine-6-phosphate
[1] = variants of: B1; experiment: self-cleavage kobs at 40 uM GlcN6P; higher = faster cleavage; RNA array
Outline: (§1)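 Using a hybridised Cy3 probe at 37 °C, barcoded ribozyme variants transcribed in situ by E. coli RNA polymerase on sequenced MiSeq chips were monitored across tiles imaged over ~14 h. The flow contained glucosamine-6-phosphate from 40 μM to 10 mM in HEPES/KCl/Mg(OAc)2 buffer. Signals were normalised to baseline and to non-cleaving reference variants before per-tile medians were fit to one- or two-exponential decays to yield kobs. Weighted Michaelis–Menten fits across concentrations gave kcat and KM.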

[2] = variants of: B1; experiment: self-cleavage kobs at 640 uM GlcN6P; higher = faster cleavage; RNA array
Outline: as §1

[3] = variants of: B1; experiment: self-cleavage kobs at 160 uM GlcN6P; higher = faster cleavage; RNA array
Outline: as §1

[4] = variants of: B1; experiment: self-cleavage kobs at 2500 uM GlcN6P; higher = faster cleavage; RNA array
Outline: as §1

[5] = variants of: B1; experiment: self-cleavage kobs at 10000 uM GlcN6P; higher = faster cleavage; RNA array
Outline: as §1

## AUAAAAGCGCCAGAACUACAGAAAUGUAGUUGACGAGGAGGAGGUUUAUCGAACUUUCCGCGGAUGCCUCCAAA [U54C G59C]
[1]
  self-cleavage kobs at 40 uM GlcN6P: < 1e-05 s⁻¹
[2]
  self-cleavage kobs at 640 uM GlcN6P: < 1e-05 s⁻¹
[3]
  self-cleavage kobs at 160 uM GlcN6P: < 1e-05 s⁻¹
[4]
  self-cleavage kobs at 2500 uM GlcN6P: < 1e-05 s⁻¹

## AUAAAAGCGCCAGAACUACAGAAAUGUAGUUGACGAGGAGGAGGUUUAUCGAACUUUCGUCGGAUGUCUCCAAA [U54C G60U C67U]
[1]
  self-cleavage kobs at 40 uM GlcN6P: < 1e-05 s⁻¹
[5]
  self-cleavage kobs at 10000 uM GlcN6P: < 1e-05 s⁻¹

## AUAAAAGCGCCAGAACUACAGAAAUGUAGUUGACGAGGAGGAGGUUUAUCGAACUUUCGGCCGAUGCCUCCAAA [U54C G62C]
[1]
  self-cleavage kobs at 40 uM GlcN6P: < 1e-05 s⁻¹
[3]
  self-cleavage kobs at 160 uM GlcN6P: < 1e-05 s⁻¹

## AUAAAAGCGCCAGAACUACAGAAAUGUAGUUGACGAGGAGGAGGUUUAUCGAACUUUCGGCGGAGGCCUCCAAA [U54C U65G]
[1]
  self-cleavage kobs at 40 uM GlcN6P: 5.43e-05 ± 8.6e-06 s⁻¹

## AUAAAAGCGCCAGAACUACAGAAAUGUAGUUGACGAGGAGGAGGUUUAUCGAAGUUUCGGCGGAUGACUCCAAA [U54G C67A]
[1]
  self-cleavage kobs at 40 uM GlcN6P: 0.000326 ± 7.1e-05 s⁻¹
[2]
  self-cleavage kobs at 640 uM GlcN6P: 0.000916 ± 0.00018 s⁻¹
[3]
  self-cleavage kobs at 160 uM GlcN6P: 0.000481 ± 9.8e-05 s⁻¹
[4]
  self-cleavage kobs at 2500 uM GlcN6P: 0.00208 ± 0.00067 s⁻¹
[5]
  self-cleavage kobs at 10000 uM GlcN6P: 0.00623 ± 0.0012 s⁻¹

## AUAAAAGCGCCAGAACUACAGAAAUGUAGUUGACGAGGAGGAGGUUUAUCGAAGUUUCGGCGGAGGGCUCCAAA [U54G U65G C67G]
[1]
  self-cleavage kobs at 40 uM GlcN6P: 3.01e-05 ± 1.5e-05 s⁻¹
[5]
  self-cleavage kobs at 10000 uM GlcN6P: 0.00213 ± 0.00029 s⁻¹

## AUAAAAGCGCCAGAACUACAGAAAUGUAGUUGACGAGGAGGAGGUUUAUCGAAGUUUCGGCGGAUGCCGCCAAA [U54G U69G]
[1]
  self-cleavage kobs at 40 uM GlcN6P: 3.86e-05 ± 1.3e-05 s⁻¹
[3]
  self-cleavage kobs at 160 uM GlcN6P: 8.46e-05 ± 2.2e-05 s⁻¹

## AUAAAAGCGCCAGAACUACAGAAAUGUAGUUGACGAGGAGGAGGUUUAUCGAAUAUUCGGCGGAUGCCUCCAAA [U55A]
[1]
  self-cleavage kobs at 40 uM GlcN6P: 0.00134 ± 4.9e-05 s⁻¹

## AUAAAAGCGCCAGAACUACAGAAAUGUAGUUGACGAGGAGGAGGUUUAUCGAAUAUUCGGCGGUUGCUUCCAAA [U55A A64U C68U]
[1]
  self-cleavage kobs at 40 uM GlcN6P: < 1e-05 s⁻¹

## AUAAAAGCGCCAGAACUACAGAAAUGUAGUUGACGAGGAGGAGGUUUAUCGAAUAUUCGGCGGAUGCGUCCAAA [U55A C68G]
[1]
  self-cleavage kobs at 40 uM GlcN6P: 3.36e-05 ± 1e-05 s⁻¹
[2]
  self-cleavage kobs at 640 uM GlcN6P: 8.75e-05 ± 1.2e-05 s⁻¹
[3]
  self-cleavage kobs at 160 uM GlcN6P: 6.64e-05 ± 1e-05 s⁻¹

## AUAAAAGCGCCAGAACUACAGAAAUGUAGUUGACGAGGAGGAGGUUUAUCGAAUAUUCGUCGGAUGGCUCCAAA [U55A G60U C67G]
[1]
  self-cleavage kobs at 40 uM GlcN6P: < 1e-05 s⁻¹
[2]
  self-cleavage kobs at 640 uM GlcN6P: < 1e-05 s⁻¹
[4]
  self-cleavage kobs at 2500 uM GlcN6P: < 1e-05 s⁻¹

## AUAAAAGCGCCAGAACUACAGAAAUGUAGUUGACGAGGAGGAGGUUUAUCGAAUAUUCGGCAGAUGCCUCCAAA [U55A G62A]
[1]
  self-cleavage kobs at 40 uM GlcN6P: < 1e-05 s⁻¹

## AUAAAAGCGCCAGAACUACAGAAAUGUAGUUGACGAGGAGGAGGUUUAUCGAAUAGUCGGCGGAUGCCUCCAAA [U55A U56G]
[1]
  self-cleavage kobs at 40 uM GlcN6P: 0.000292 ± 4.8e-05 s⁻¹
[2]
  self-cleavage kobs at 640 uM GlcN6P: 0.00368 ± 0.00046 s⁻¹
[3]
  self-cleavage kobs at 160 uM GlcN6P: 0.000454 ± 8.8e-05 s⁻¹
[4]
  self-cleavage kobs at 2500 uM GlcN6P: 0.00771 ± 0.0013 s⁻¹
[5]
  self-cleavage kobs at 10000 uM GlcN6P: 0.0097 ± 0.0019 s⁻¹

## AUAAAAGCGCCAGAACUACAGAAAUGUAGUUGACGAGGAGGAGGUUUAUCGAAUAUUCGGCGGAUGCCACCAAA [U55A U69A]
[1]
  self-cleavage kobs at 40 uM GlcN6P: 7.99e-05 ± 1.9e-05 s⁻¹
[2]
  self-cleavage kobs at 640 uM GlcN6P: 9.88e-05 ± 1.9e-05 s⁻¹
[3]
  self-cleavage kobs at 160 uM GlcN6P: 9.45e-05 ± 2.4e-05 s⁻¹
[4]
  self-cleavage kobs at 2500 uM GlcN6P: 7.93e-05 ± 1.3e-05 s⁻¹
[5]
  self-cleavage kobs at 10000 uM GlcN6P: 0.000129 ± 2.7e-05 s⁻¹

## AUAAAAGCGCCAGAACUACAGAAAUGUAGUUGACGAGGAGGAGGUUUAUCGAAUCUUCGGUGGAUGCUUCCAAA [U55C C61U C68U]
[1]
  self-cleavage kobs at 40 uM GlcN6P: < 1e-05 s⁻¹
[5]
  self-cleavage kobs at 10000 uM GlcN6P: < 1e-05 s⁻¹

## AUAAAAGCGCCAGAACUACAGAAAUGUAGUUGACGAGGAGGAGGUUUAUCGAAUCUUCGGCGGAUGUAUCCAAA [U55C C67U C68A]
[1]
  self-cleavage kobs at 40 uM GlcN6P: < 1e-05 s⁻¹
[5]
  self-cleavage kobs at 10000 uM GlcN6P: < 1e-05 s⁻¹

## AUAAAAGCGCCAGAACUACAGAAAUGUAGUUGACGAGGAGGAGGUUUAUCGAAUCUUCGGCGGAUGCCUUCAAA [U55C C70U]
[1]
  self-cleavage kobs at 40 uM GlcN6P: 2.44e-05 ± 9e-06 s⁻¹
[2]
  self-cleavage kobs at 640 uM GlcN6P: 0.000172 ± 4.7e-05 s⁻¹
[3]
  self-cleavage kobs at 160 uM GlcN6P: 7.16e-05 ± 3e-05 s⁻¹

## AUAAAAGCGCCAGAACUACAGAAAUGUAGUUGACGAGGAGGAGGUUUAUCGAAUCUUCGGCGGAUGCCUCGAAA [U55C C71G]
[1]
  self-cleavage kobs at 40 uM GlcN6P: < 1e-05 s⁻¹

## AUAAAAGCGCCAGAACUACAGAAAUGUAGUUGACGAGGAGGAGGUUUAUCGAAUCUUCUGCGGAUGCCUCCAAA [U55C G59U]
[1]
  self-cleavage kobs at 40 uM GlcN6P: < 1e-05 s⁻¹

## AUAAAAGCGCCAGAACUACAGAAAUGUAGUUGACGAGGAGGAGGUUUAUCGAAUCUUCGUCGGAUGCUUCCAAA [U55C G60U C68U]
[1]
  self-cleavage kobs at 40 uM GlcN6P: < 1e-05 s⁻¹
[4]
  self-cleavage kobs at 2500 uM GlcN6P: < 1e-05 s⁻¹

## AUAAAAGCGCCAGAACUACAGAAAUGUAGUUGACGAGGAGGAGGUUUAUCGAAUCUUCGGCGGACGCCUCCAAA [U55C U65C]
[1]
  self-cleavage kobs at 40 uM GlcN6P: < 1e-05 s⁻¹

## AUAAAAGCGCCAGAACUACAGAAAUGUAGUUGACGAGGAGGAGGUUUAUCGAAUCUUCGGCGGAUGCCGCCAAA [U55C U69G]
[1]
  self-cleavage kobs at 40 uM GlcN6P: < 1e-05 s⁻¹

## AUAAAAGCGCCAGAACUACAGAAAUGUAGUUGACGAGGAGGAGGUUUAUCGAAUGUUCGGCGGAUGCCUCCAAA [U55G]
[1]
  self-cleavage kobs at 40 uM GlcN6P: 0.000889 ± 2.1e-05 s⁻¹
[2]
  self-cleavage kobs at 640 uM GlcN6P: 0.0103 ± 0.00037 s⁻¹
[3]
  self-cleavage kobs at 160 uM GlcN6P: 0.00312 ± 0.00021 s⁻¹
[4]
  self-cleavage kobs at 2500 uM GlcN6P: 0.0271 ± 0.0015 s⁻¹
[5]
  self-cleavage kobs at 10000 uM GlcN6P: 0.0436 ± 0.0021 s⁻¹

## AUAAAAGCGCCAGAACUACAGAAAUGUAGUUGACGAGGAGGAGGUUUAUCGAAUGUUAGGCGGAUGCCUCCAAA [U55G C58A]
[1]
  self-cleavage kobs at 40 uM GlcN6P: < 1e-05 s⁻¹

## AUAAAAGCGCCAGAACUACAGAAAUGUAGUUGACGAGGAGGAGGUUUAUCGAAUGUUCGGAGGAUCCCUACAAA [U55G C61A G66C C70A]
[1]
  self-cleavage kobs at 40 uM GlcN6P: 0.000162 ± 4.4e-05 s⁻¹
[2]
  self-cleavage kobs at 640 uM GlcN6P: 0.000153 ± 3.1e-05 s⁻¹
[3]
  self-cleavage kobs at 160 uM GlcN6P: 0.000108 ± 2.1e-05 s⁻¹
[4]
  self-cleavage kobs at 2500 uM GlcN6P: 8.3e-05 ± 1.7e-05 s⁻¹

## AUAAAAGCGCCAGAACUACAGAAAUGUAGUUGACGAGGAGGAGGUUUAUCGAAUGUUCGGCGGAUGCCUACAAA [U55G C70A]
[1]
  self-cleavage kobs at 40 uM GlcN6P: 5.03e-05 ± 1.3e-05 s⁻¹
[2]
  self-cleavage kobs at 640 uM GlcN6P: 0.00015 ± 3e-05 s⁻¹
[3]
  self-cleavage kobs at 160 uM GlcN6P: 5.52e-05 ± 1.4e-05 s⁻¹
[4]
  self-cleavage kobs at 2500 uM GlcN6P: 0.000147 ± 2.4e-05 s⁻¹
[5]
  self-cleavage kobs at 10000 uM GlcN6P: 0.000131 ± 2.6e-05 s⁻¹

## AUAAAAGCGCCAGAACUACAGAAAUGUAGUUGACGAGGAGGAGGUUUAUCGAAUGUCCGGCGGAUGCCUCCAAA [U55G U57C]
[1]
  self-cleavage kobs at 40 uM GlcN6P: < 1e-05 s⁻¹
[2]
  self-cleavage kobs at 640 uM GlcN6P: 3.51e-05 ± 1e-05 s⁻¹

## AUAAAAGCGCCAGAACUACAGAAAUGUAGUUGACGAGGAGGAGGUUUAUCGAAUGUGCGGCGGAUGCCUCCAAA [U55G U57G]
[1]
  self-cleavage kobs at 40 uM GlcN6P: < 1e-05 s⁻¹

## AUAAAAGCGCCAGAACUACAGAAAUGUAGUUGACGAGGAGGAGGUUUAUCGAAUGUUCGGCGGAUGCCCCCAAA [U55G U69C]
[1]
  self-cleavage kobs at 40 uM GlcN6P: 0.000197 ± 4.3e-05 s⁻¹
[2]
  self-cleavage kobs at 640 uM GlcN6P: 0.000303 ± 6.9e-05 s⁻¹
[3]
  self-cleavage kobs at 160 uM GlcN6P: 0.000229 ± 6.1e-05 s⁻¹
[4]
  self-cleavage kobs at 2500 uM GlcN6P: 0.000289 ± 6.4e-05 s⁻¹
[5]
  self-cleavage kobs at 10000 uM GlcN6P: 0.000457 ± 8e-05 s⁻¹

## AUAAAAGCGCCAGAACUACAGAAAUGUAGUUGACGAGGAGGAGGUUUAUCGAAUUAUCGGCGGAUGUCUCCAAA [U56A C67U]
[1]
  self-cleavage kobs at 40 uM GlcN6P: 0.000175 ± 1.9e-05 s⁻¹
[2]
  self-cleavage kobs at 640 uM GlcN6P: 0.000938 ± 8.9e-05 s⁻¹
[3]
  self-cleavage kobs at 160 uM GlcN6P: 0.000452 ± 6.1e-05 s⁻¹
